In brackets after ≈: the same amount, converted by molar mass.

The results in this text go back to ChEMBL document CHEMBL1759970, “Design, synthesis and SAR of novel ethylenediamine and phenylenediamine derivatives as factor Xa inhibitors” (Bioorg Med Chem Lett, 2011).

Series [1] can be described thus: physchem. Particulars: buffer, pH 1.2.
Series [2] in a line: physchem. The settings on record: buffer, pH 6.8.
Series [3] in a line: physchem. The settings on record: octanol/water.

As to `CCOC(=O)c1ccc(NC(=O)c2cc3cc(Cl)ccc3[nH]2)c(NC(=O)c2nc3c(s2)CN(C)CC3)c1`, the solubility in “physchem [1]” was 2.7 µg/mL (≈ 5.02 µM); in the series “physchem [2]”, under 1 µg/mL.

Turning to `COC(=O)C[C@@H](CNC(=O)c1cc2cc(Cl)ccc2[nH]1)NC(=O)c1nc2c(s1)CN(C)CC2`, the results for the solubility in the series “physchem [1]” and in “physchem [2]” were over 1000 µg/mL and 135 µg/mL (≈ 276 µM), respectively.

`CN1CCc2nc(C(=O)N[C@H](CNC(=O)c3cc4cc(Cl)ccc4[nH]3)CC(=O)O)sc2C1`: the solubility in the series “physchem [1]” was found to be 900 µg/mL (≈ 1890 µM); in “physchem [2]”, 432 µg/mL (≈ 908 µM).

Turning to `CN1CCc2nc(C(=O)N[C@H](CNC(=O)c3cc4cc(Cl)ccc4[nH]3)CC(=O)N(C)C)sc2C1`, the values for the solubility in “physchem [1]” and in the series “physchem [2]” were over 1000 µg/mL and 140 µg/mL (≈ 278 µM), respectively.

Turning to `COC(=O)C[C@H](CNC(=O)c1cc2cc(Cl)ccc2[nH]1)NC(=O)c1nc2c(s1)CN(C)CC2`, the results for the solubility in “physchem [1]” and in “physchem [2]” were 813 µg/mL (≈ 1660 µM) and 87 µg/mL (≈ 178 µM), respectively.

As to `CN1CCc2nc(C(=O)N[C@@H](CNC(=O)c3cc4cc(Cl)ccc4[nH]3)CC(=O)O)sc2C1`, the values for the solubility in the series “physchem [1]” and in “physchem [2]” were 938 µg/mL (≈ 1970 µM) and 544 µg/mL (≈ 1140 µM), respectively.

With `COC(=O)C[C@@H](CNC(=O)c1nc2c(s1)CN(C)CC2)NC(=O)c1cc2cc(Cl)ccc2[nH]1`, the results for the solubility in the series “physchem [1]” and in “physchem [2]” were 536 µg/mL (≈ 1090 µM) and 93 µg/mL (≈ 190 µM), respectively.

Take `CN1CCc2nc(C(=O)NC[C@H](CC(=O)O)NC(=O)c3cc4cc(Cl)ccc4[nH]3)sc2C1`: the solubility in “physchem [1]” was over 1000 µg/mL; in “physchem [2]” it was 39 µg/mL (≈ 81.9 µM).

`COC(=O)C[C@H](CNC(=O)c1nc2c(s1)CN(C)CC2)NC(=O)c1cc2cc(Cl)ccc2[nH]1`: the solubility in the series “physchem [1]” stood at 237 µg/mL (≈ 484 µM); in “physchem [2]”, 93 µg/mL (≈ 190 µM).

Consider `CN1CCc2nc(C(=O)NC[C@@H](CC(=O)O)NC(=O)c3cc4cc(Cl)ccc4[nH]3)sc2C1`, for which the solubility stood at 786 µg/mL (≈ 1650 µM) in the series “physchem [1]” and 30 µg/mL (≈ 63 µM) in “physchem [2]”.

Regarding `COC(=O)COc1ccc(NC(=O)c2cc3cc(Cl)ccc3[nH]2)c(NC(=O)c2nc3c(s2)CN(C)CC3)c1`, the figures for the solubility in “physchem [1]” and in “physchem [2]” were 51 µg/mL (≈ 92.1 µM) and under 1 µg/mL, respectively.

With `COC(=O)COc1ccc(NC(=O)c2nc3c(s2)CN(C)CC3)c(NC(=O)c2cc3cc(Cl)ccc3[nH]2)c1`, the solubility was 8 µg/mL (≈ 14.4 µM) in “physchem [1]” and under 1 µg/mL in “physchem [2]”.

Turning to `CCOC(=O)Cc1ccc(NC(=O)c2cc3cc(Cl)ccc3[nH]2)c(NC(=O)c2nc3c(s2)CN(C)CC3)c1`, the solubility was 250 µg/mL (≈ 453 µM) in “physchem [1]” and under 1 µg/mL in the series “physchem [2]”.

Turning to `CN1CCc2nc(C(=O)Nc3cc(CC(=O)O)ccc3NC(=O)c3cc4cc(Cl)ccc4[nH]3)sc2C1`, the solubility in “physchem [1]” stood at 22 µg/mL (≈ 42 µM); in “physchem [2]” it was 16 µg/mL (≈ 30.5 µM).

Take `CN1CCc2nc(C(=O)Nc3cc(OCC(=O)O)ccc3NC(=O)c3cc4cc(Cl)ccc4[nH]3)sc2C1`: the solubility is 12 µg/mL (≈ 22.2 µM) in “physchem [1]” and under 1 µg/mL in the series “physchem [2]”.

For `COC(=O)C(C)Oc1ccc(NC(=O)c2cc3cc(Cl)ccc3[nH]2)c(NC(=O)c2nc3c(s2)CN(C)CC3)c1` (stereo not given), the results for the solubility in “physchem [1]” and in “physchem [2]” were 61 µg/mL (≈ 107 µM) and under 1 µg/mL, respectively.

Regarding `COC(=O)C(C)(C)Oc1ccc(NC(=O)c2cc3cc(Cl)ccc3[nH]2)c(NC(=O)c2nc3c(s2)CN(C)CC3)c1`, the solubility was 37 µg/mL (≈ 63.6 µM) in the series “physchem [1]” and under 1 µg/mL in the series “physchem [2]”.

Regarding `CN1CCc2nc(C(=O)Nc3cc(OC(C)(C)C(=O)O)ccc3NC(=O)c3cc4cc(Cl)ccc4[nH]3)sc2C1`, the solubility in “physchem [1]” came out at 71 µg/mL (≈ 125 µM); in “physchem [2]”, 362 µg/mL (≈ 637 µM). In “physchem [3]”, this compound came in with a logD of 1.3.

Regarding `COC(=O)C(C)(C)COc1ccc(NC(=O)c2cc3cc(Cl)ccc3[nH]2)c(NC(=O)c2nc3c(s2)CN(C)CC3)c1`, the solubility in “physchem [1]” is 11 µg/mL (≈ 18.5 µM); in “physchem [2]” it was under 1 µg/mL.

On to `CN1CCc2nc(C(=O)Nc3cc(OCC(C)(C)C(=O)O)ccc3NC(=O)c3cc4cc(Cl)ccc4[nH]3)sc2C1`, for which the solubility in “physchem [1]” is 4 µg/mL (≈ 6.87 µM); in the series “physchem [2]”, 9 µg/mL (≈ 15.5 µM).

Turning to `COC(=O)C1(COc2ccc(NC(=O)c3cc4cc(Cl)ccc4[nH]3)c(NC(=O)c3nc4c(s3)CN(C)CC4)c2)CC1`, the solubility in “physchem [1]” is 22 µg/mL (≈ 37 µM); in the series “physchem [2]”, under 1 µg/mL.

For the compound `CN1CCc2nc(C(=O)Nc3cc(OCC4(C(=O)O)CC4)ccc3NC(=O)c3cc4cc(Cl)ccc4[nH]3)sc2C1`, the solubility is 4 µg/mL (≈ 6.9 µM) in the series “physchem [1]” and 1 µg/mL (≈ 1.72 µM) in the series “physchem [2]”.
